Laboratory results published in PubChem BioAssay AID504339 (National Center for Advancing Translational Sciences (NCATS), 2011).
Where “and” joins values, the source holds several entries; their conditions need not be identical. Identical values can stand only once. The campaign covered roughly 390,000 compounds. About 17,000 (4.4%) were called active. Inconclusive results, whose numbers are uncertain, are shown with a selection of clear calls. Calls follow the shape of the dose curve; as a rule, active = well fitted inhibition curve with a large enough effect; inconclusive = small, poorly fitted or top-dose-only effect; inactive = no such curve, though single readings can be large or run the other way. A potency beside an inconclusive call is a rough fit, not a confirmed value.

Biological target: Lysine-specific demethylase 4A (Homo sapiens) (UniProt O75164)
Experiment: qHTS Assay for Inhibitors of JMJD2A-Tudor Domain; also: nearly all actives have a fitted effect of over 50% in size
Details: AlphaScreen JMJD2A-Tudor / H3K4me3 peptide binding; activity change, negative = inhibition: at 114 µM (top of the series)
% is scaled to controls: 0 for no effect and ±100 for the full control effect; potency is read from the fitted curve at half-maximal effect; tags tell the direction and shape of the fitted curve.

Chain of UniProt O75164 (O75164 whole entry, looked up, the tested form may be a part): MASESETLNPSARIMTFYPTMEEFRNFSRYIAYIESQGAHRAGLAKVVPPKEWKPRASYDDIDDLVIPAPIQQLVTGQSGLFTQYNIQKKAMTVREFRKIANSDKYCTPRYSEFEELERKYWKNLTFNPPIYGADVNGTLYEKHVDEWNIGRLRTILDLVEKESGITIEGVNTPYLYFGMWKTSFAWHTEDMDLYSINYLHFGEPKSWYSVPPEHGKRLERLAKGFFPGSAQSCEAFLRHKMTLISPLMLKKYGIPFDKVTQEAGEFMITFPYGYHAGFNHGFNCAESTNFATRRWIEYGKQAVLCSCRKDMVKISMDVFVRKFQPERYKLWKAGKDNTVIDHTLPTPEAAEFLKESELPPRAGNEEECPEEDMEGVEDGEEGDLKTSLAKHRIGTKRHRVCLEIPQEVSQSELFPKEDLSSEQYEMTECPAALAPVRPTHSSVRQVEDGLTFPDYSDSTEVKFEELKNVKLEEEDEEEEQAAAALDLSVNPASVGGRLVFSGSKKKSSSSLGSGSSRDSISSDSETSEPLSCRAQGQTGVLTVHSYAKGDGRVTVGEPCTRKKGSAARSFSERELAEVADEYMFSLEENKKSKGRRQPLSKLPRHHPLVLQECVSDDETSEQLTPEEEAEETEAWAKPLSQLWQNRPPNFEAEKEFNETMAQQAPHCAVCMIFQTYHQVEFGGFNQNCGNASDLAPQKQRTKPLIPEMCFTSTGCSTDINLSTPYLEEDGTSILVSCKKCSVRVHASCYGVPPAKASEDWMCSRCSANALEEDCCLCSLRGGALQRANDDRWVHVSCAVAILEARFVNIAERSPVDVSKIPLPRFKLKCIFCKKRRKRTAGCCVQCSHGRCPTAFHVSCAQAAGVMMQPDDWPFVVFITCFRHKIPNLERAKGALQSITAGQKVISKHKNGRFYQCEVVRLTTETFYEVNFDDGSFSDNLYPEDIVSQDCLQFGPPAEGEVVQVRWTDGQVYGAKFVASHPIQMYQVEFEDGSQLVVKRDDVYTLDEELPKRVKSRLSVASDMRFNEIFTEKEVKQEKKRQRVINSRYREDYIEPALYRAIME

| Compound | activity change, negative = inhibition | Potency |
| --- | --- | --- |
| CN1C2CCC1C(C(=O)O)C(O)C2 (stereo unspecified) | inactive: -21.4% | – |
| COc1ccccc1N1C(=O)NC(=O)/C(=C/c2ccc([N+](=O)[O-])s2)C1=O | – | active: 56.2 µM |
| Cc1c(C)c2cc(Cl)c(OCC(=O)N3C[C@H]4C[C@@H](C3)c3cccc(=O)n3C4)cc2oc1=O | inactive: -22.4% | – |
| CCCN(CC#CCOc1ccc(OC)cc1)CCC | – | active: 6.31 µM |
| CCOc1ccccc1-n1c(O)c(C=Nc2c(C)n(C)n(-c3ccccc3)c2=O)c(=O)[nH]c1=O | inactive: -1.1% | – |
| COc1ccccc1CN1CCN(C(=O)COc2cccc(C)c2)CC1 | – | active: 20 µM and active: 31.6 µM |
| Cc1cc(C(=O)C[N+]23CCN(CC2)CC3)c(C)n1-c1ccc(Br)cc1 | inactive: -19.2% | – |
| COC(=O)C1=C(c2ccc(Cl)c(C(F)(F)F)c2)C[C@@H]2CC[C@H]1N2C(=O)NCc1ccco1 | – | inconclusive: 56.2 µM [inhibitor, partial curve] |
| CCOc1ccc(NC(=O)c2c(O)[nH]c(=O)[nH]c2=O)cc1 | – | inconclusive: 50.1 µM [inhibitor, partial curve] |
| CCOc1ccc(CN(CCCl)CCCl)cc1C(=O)OC | – | active: 25.1 µM |
| CCOC(=O)CC1=C(C(=O)OCC)C2(C(=O)N1CC(=O)OC)C(C#N)=C(N)Oc1ccccc12 (stereo unspecified) | inactive: -15.5% | – |
| O=C(O)CCC(=O)NCCC1=c2ccccc2=N/C1=C\c1c(O)n(Cc2ccc(F)cc2)c(=S)[nH]c1=O | – | active: 31.6 µM |
| CCN(CC)C(=O)N[C@H]1C[C@@H]2c3cccc4[nH]cc(c34)C[C@H]2N(C)C1 | – | inconclusive: 89.1 µM [inhibitor, partial curve, poor fit] |
| O=C(COc1ccc2ccccc2c1)N1CCN(Cc2ccncc2)CC1 | – | inconclusive: 0.708 µM [inhibitor, full curve, poor fit] |
| CCOc1ccc(CN(CCc2ccc3c(c2)OCO3)Cc2ccc(CC)cc2)cc1 | – | active: 22.4 µM |
| O=C(c1c[nH]c(C(=O)C(Cl)(Cl)Cl)c1)c1ccccc1Cl | – | inconclusive: 56.2 µM [inhibitor, partial curve] |
| Cc1ccc2[nH]c(C)c(CCNCc3ccco3)c2c1 | – | inconclusive: 44.7 µM [inhibitor, partial curve] |
| CCCCOC(=O)C1=C(N)OC2=C(C(=O)CC(C)(C)C2)[C@]12C(=O)N(C)c1ccccc12 | inactive: 9.28% | – |
| CC1=NN(c2ccccc2)C(=O)/C1=C/c1c(O)[nH]c(=S)[nH]c1=O | – | active: 79.4 µM |
| Cc1ccc(/C=C2\C(=O)NC(=S)N(c3ccccc3F)C2=O)s1 | – | active: 70.8 µM |
| Nc1nc(N)c2cnnn2n1 | inactive: -3.45% | – |
| Cc1nc2ccccc2c(=O)n1/N=C/c1cc(Br)cc(Br)c1O | – | inconclusive: 44.7 µM [inhibitor, partial curve, poor fit] |
| C[CH2][Hg][S]c1ccccc1C(=O)O | – | active: 17.8 µM |

| Compound | activity change, negative = inhibition | Potency |
| --- | --- | --- |
| CCOC(=O)c1ccc(N2C(=O)c3n[nH]c(-c4cccs4)c3C2c2ccc(OC)cc2OC)cc1 (stereo unspecified) | – | inconclusive: 39.8 µM [inhibitor, partial curve] |
| c1ccc(CCNC2CCCCCC2)cc1 | – | active: 70.8 µM |
| CC1CCc2cc(F)cc3c(=O)c(C(=O)O)cn1c23 (stereo unspecified) | – | inconclusive: 89.1 µM [inhibitor, single point] |
| OCc1cnc[nH]1 | – | inconclusive: 79.4 µM [inhibitor, partial curve] |
| CC(C)CC1C(=O)N2CCC[C@H]2[C@]2(O)O[C@](NC(=O)[C@@H]3C=C4c5cccc6[nH]c(Br)c(c56)C[C@H]4N(C)C3)(C(C)C)C(=O)N12 (stereo partly specified) | – | inconclusive: 14.1 µM [inhibitor, full curve, poor fit] |
| CCCCC1C(=O)NC(=S)N(C)C1=O (stereo unspecified) | – | active: 79.4 µM |
| COc1cc(-n2c(=S)[nH]c3ccc(C)cc3c2=O)c(Cl)cc1Cl | – | inconclusive: 56.2 µM [inhibitor, partial curve] |
| CN(C)c1ccc2c(c1)N=C(c1ccco1)OP2(=S)N1CCOCC1 (stereo unspecified) | – | active: 79.4 µM |
| Cc1ccc(N2C(=O)NC(=O)/C(=C\c3cc(C)n(-c4sc5c(c4C#N)CCCC5)c3C)C2=O)cc1 | – | inconclusive: 56.2 µM [inhibitor, partial curve] |
| O=C1NC(=O)C(=Cc2ccc(Oc3ccc([N+](=O)[O-])cc3)cc2)C(=O)N1 | – | active: 56.2 µM |
| COc1ccc(OC)c(CCNCc2c(C(=O)O)c(C)n(Cc3ccc(F)cc3Cl)c2C)c1 | – | inconclusive: 50.1 µM [inhibitor, partial curve] |
| O=C1N(c2nncs2)CCN1[N+](=O)[O-] | inactive: -2.9% | – |
| COc1ccc(NC(=O)CCc2nc(C3=CCN(Cc4cccc(C)c4)CC3)no2)c(OC)c1 | – | inconclusive: 56.2 µM [inhibitor, partial curve] |
| Cc1ccc2[nH]c(=S)n(-c3cccnc3)c(=O)c2c1 | – | inconclusive: 39.8 µM [inhibitor, single point] |
| CN1C(=O)C(C2CCCCC2)C(=O)N(C)C1=O | inactive: -4.86% | – |
| Cc1ccc2c(c1N)C(=O)c1ccccc1C2=O | – | inconclusive: 8.91 µM [inhibitor, full curve] |
| COc1cccc(CN2CCc3nc(N4CCN(c5ncccn5)CC4)ncc3C2)c1 | – | active: 63.1 µM |
| CN1CC(Br)C(=O)NC1=O (stereo unspecified) | – | inconclusive: 39.8 µM [inhibitor, single point] |
| CCCCc1ncc(CN2CCCC(C(=O)c3ccc(SC)cc3)C2)[nH]1 (stereo unspecified) | inactive: -25.1% | – |
| Cc1ccc(C2C(S(C)(=O)=O)=C(O)C(=O)N2c2ccccc2)cc1 (stereo unspecified) (tested in a mixture with another compound) | – | inconclusive: 79.4 µM [inhibitor, partial curve] |
| CN1C[C@H](CNC(=O)OCc2ccccc2)C[C@@H]2c3cccc4c3c(cn4C)C[C@H]21 | – | inconclusive: 50.1 µM [inhibitor, partial curve] |
| CCCCn1c(N)c(C(=O)NCCN2CCOCC2)c2nc3ccccc3nc21 | inactive: 21.3% | – |
| Cn1c(O)c(C(=Nc2ccccc2)SCc2ccc(Cl)cc2)c(=O)n(C)c1=O | – | inconclusive: 79.4 µM [inhibitor, partial curve] |
